Laboratory results published in publication PMC8662641, “Site-Specific Labeling of Endogenous Proteins Using CoLDR Chemistry” (Journal of the American Chemical Society, 2021).
Further values from the same series stand in other lists.

Tested on: Mino cells
Experiment: Pull-down proteomics in Mino cells
Type: cell-based, human
Experimental: The cells were lysed and “clicked” with biotin-azide, and the samples were incubated at room temperature for 1 h. The samples were then precipitated with methanol–chloroform (1 mL of methanol, 250 μL of chloroform, 750 μL of water), washed with 1 mL of methanol, and air-dried. The samples were solubilized, bound to streptavidin agarose beads in PBS for 3 h at 25 °C. The beads were washed, centrifuged, resuspended in Tris 50 mM pH 8, and transferred to a clean Eppendorf tube. After this, the bound proteins were eluted by boiling with 5% SDS then reduced with DTT, alkylated with iodoacetamide, and digested with trypsin. The samples were run on LC/MS/MS. The detailed procedure is available in the Supplementary Methods Section. […]
Pull-down proteomics experiments
1b or DMSO. The cells were spun down, washed with cold PBS and frozen. Then, each sample was lysed in 200 ul of RIPA for 15 minutes on ice and centrifuged at 20000 g at 4 °C. The protein in the supernatant was quantified using BCA. For each sample, […] of 1.65 mg/ml was prepared.
At this point, 5 ul of 5 mM biotin azide and 9 ul of 100 mM CuSO4:THPTA complex were added.
The click reaction was initiated by the addition of 7.5 ul of 150 mM sodium ascorbate, and the samples are incubated at room temperature for 1 hour. The samples were then precipitated with methanol: chloroform (1 ml methanol, 250 l chloroform, 750 l water), washed with 1 ml of methanol, and air dried. The dry pellet was resuspended in 1.2% SDS in PBS (250 l), sonicated as described before, and heated to 90 °C for 5 minutes. The samples were then diluted to 1.5 ml with PBS, and 50 ul of streptavidin agarose beads, prewashed with 0.2% SDS in PBS, were added, followed by 3 hour incubation at room temperature. Following the incubation, the beads were centrifuged 2 minutes 2000 g, and washed 4 times, with the following buffers (4 ml in each wash):
2% SDS; 0.1% sodium deoxycholate, 1% Triton X-100, 0.5 M NaCl, 1 mM EDTA, 50 mM HEPES pH = 7.5; 0.25 M NaCl, 0.5% IGEPAL, 0.5% sodium deoxycholate, 1 mM EDTA, 10 mM Tris pH = 8.1; 50 mM Tris pH = 7.4, 50 mM NaCl. The beads were then resuspended in Tris 50 mM pH = 8 and transferred to a clean Eppendorf tube.
At this point, the buffer was removed to leave a volume of 100 ul, and 100 ul of Tris 50 mM pH 8 + 10% SDS was added, and the samples were heated to 96 °C for 5 minutes. The samples were then centrifuged and the denatured, eluted proteins were transferred to new tubes. Then, 7.5 ul of 0.1 M DTT was added, and samples were incubated at 65 °C for 45 minutes. After the samples had cooled, 7.5 ul of iodoacetamide (0.2 M) were added, and the samples were incubated in the dark for 40 minutes at room temperature. At this point 1/10 volume of 12% phosphoric acid was added, and the samples were diluted 6-fold with 90% methanol + 50 mM ammonium bicarbonate. The samples were then loaded on s-trap micro columns (Protify) and the columns […]
were washed 3 times with 150 ul of 90% methanol + 50 mM ammonium bicarbonate. Then, 20 ul of 0.05 g/l of trypsin in 50 mM ammonium bicarbonate were added to the columns, and the samples were incubated at 47 °C for 90 minutes. Then 40 ul of 50 mM ammonium bicarbonate was added, followed by centrifugation and addition of 1 ul of 0.5 g/l trypsin to the eluate, which was incubated at 37C overnight. The column itself was then eluted using 40 ul of 0.2% formic acid and 40 ul 0.2% formic acid in 50% acetonitrile into a separate tube, which was kept at 4 °C. The two eluates were then combined and evaporated before running on LC/MS/MS.
Running samples on LC/MS/MS:
ULC/MS grade solvents were used for all chromatographic steps. Each sample was loaded using split-less nano-Ultra Performance Liquid Chromatography (10 kpsi nanoAcquity; Waters, Milford, MA, USA). The mobile phase was: A) H2O + 0.1% formic acid and B) acetonitrile + 0.1% formic acid. Desalting of the samples was performed online using a reversed-phase Symmetry C18 […]

C#CCCNC(=O)C(=C)CN1CCC[C@@H](n2nc(-c3ccc(Oc4ccccc4)cc3)c3c(N)ncnc32)C1 [1b]
Log2(fold enrichment) (ADK_HUMAN, 1b relative to pretreatment by ibrutinib): 0.09623 | Log2(fold enrichment) (ADK_HUMAN, 1b relative to treatment with DMSO): 5.473 | Log2(fold enrichment) (BLK_HUMAN, 1b relative to pretreatment by ibrutinib): 6.825 | Log2(fold enrichment) (BLK_HUMAN, 1b relative to treatment with DMSO): 6.253 | Log2(fold enrichment) (BTK_HUMAN (protein group with EPH receptors), 1b relative to pretreatment by ibrutinib): 9.649 | Log2(fold enrichment) (BTK_HUMAN (protein group with EPH receptors), 1b relative to treatment with DMSO): 9.407 | Log2(fold enrichment) (LEG7_HUMAN, 1b relative to pretreatment by ibrutinib): -0.4255 | Log2(fold enrichment) (LEG7_HUMAN, 1b relative to treatment with DMSO): 0 | Log2(fold enrichment) (MCAT_HUMAN, 1b relative to pretreatment by ibrutinib): 0.4329 | Log2(fold enrichment) (MCAT_HUMAN, 1b relative to treatment with DMSO): 7.756
